# In PubChem BioAssay AID1347416 (National Center for Advancing Translational Sciences (NCATS), 2020):
# In all, about 4,100 compounds went through this assay and about 1,600 (39%) were called active. The inconclusive results got no clear call from the source; some entries with a clear call stand among them for comparison. Calls come from the whole dose curve; as a rule, active = well fitted inhibition curve with a large enough effect; inconclusive = small, poorly fitted or top-dose-only effect; inactive = no such curve, though single readings can be large or run the other way. A potency beside an inconclusive call is a rough fit, not a confirmed value.
# Assay: qHTS Validation assay for Inhibitors of Plasmodium falciparum Dd2 growth in vitro; note: nearly all actives have a fitted effect of over 70% in size
# Conditions: P. falciparum Dd2 in RBCs, SYBR Green growth, 72 h; activity change, negative = inhibition: at 28.7 µM (top of the series) unless noted
# Outline: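 P. falciparum Dd2-infected red blood cells (2.5% hematocrit, 0.3% parasitemia) grown 72 h at 37 °C under 5% O2 with compounds in a titration, 29 uM to 0.5 nM final. Growth read as SYBR Green-1 fluorescence after ~16 h lysis; artesunate 300 nM as positive control.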
# % is set by controls: 0 for no effect and ±100 for the full control effect; potency is the fitted concentration of half-maximal effect; tags give direction and shape of the fitted curve.
SMILES,Potency,"activity change, negative = inhibition"
CCOC(=O)c1c(C)n(C)c2ccc(O)c(CN3CCCCC3)c12,"inconclusive: 13.3 µM [inhibitor, single point]",–
O=C(c1ccc2[nH]ccc2c1)N1CCC2(CC1)N=C(c1ccc(Br)cc1)NO2,"inconclusive: 13.3 µM [inhibitor, single point]",–
C[C@H](C(=O)N1CCCC1)C1CC[C@@]2(C)Cc3sc(NC(=O)C4CC4)nc3[C@@H](C)[C@@H]2[C@H]1O (some centres not stated),–,inactive: 41.6%
COCCNC(=O)CSc1nc(-c2cc(OC)c(OC)c(OC)c2)[nH]c1-c1ccc(Cl)cc1,"inconclusive: 8.41 µM [inhibitor, partial curve]",–
CC1=C[C@@H](CN2CCOCC2)[C@H](C(C)C)C[C@H]1Cc1nnc(-c2ccc([N+](=O)[O-])cc2)o1,active: 9.44 µM,–
CC(=O)N1CCN([C@H]2[C@@H]3OC[C@@H](O3)[C@@H](NC(=O)Nc3ccccc3)[C@@H]2O)CC1,–,inactive: 7.1% [at 43.1 µM]
COc1cccc(-c2nn3c(=O)cc(CN4CCN(S(=O)(=O)c5ccc(C)cc5)CC4)nc3s2)c1,"inconclusive: 8.41 µM [inhibitor, partial curve]",–
COCCCn1c(=N)c(C(=O)NCC2CCCO2)cc2c(=O)n3cc(C)ccc3nc21 (configuration not stated),–,inactive: 20.7%
COc1ccccc1-c1cc2[nH]ccc2c(C(=O)NCc2c(C)cc(C)[nH]c2=O)n1,"inconclusive: 34.4 µM [inhibitor, single point]",–
CC#CCn1cc2c3c(cccc31)[C@H](CC(C)C)N[C@H](C(=O)N1CCC(O)CC1)C2,"inconclusive: 34.4 µM [inhibitor, single point]",–
CCCCNc1nc2sc3c(c2c(=O)n1-c1cccc(Cl)c1)CCN(C)C3,active: 9.44 µM,–
CCn1cnnc1-c1nn(C)c2c1CN(C(=O)CC(C)C)CC2,–,inactive: 22.8%
COc1ccc(-c2cn3c(n2)sc2cc(C(=O)NCCCN4CCCCC4)ccc23)cc1,active: 4.73 µM,–
CC(=O)Nc1cccc(C(=O)OC(C(=O)c2ccc(C)cc2)c2ccccc2)c1 (configuration not stated),"inconclusive: 18.8 µM [inhibitor, single point]",–
Clc1ccc(Nc2c3c(nc4ncnn24)CCC3)cc1,"inconclusive: 13.3 µM [inhibitor, single point]",–
COc1cc([N+](=O)[O-])ccc1NC(=O)Nc1nc2c(s1)CCCC2,"inconclusive: 6.68 µM [inhibitor, full curve]",–
c1ccc2c(NCCc3c[nH]c4ccccc34)c3ccccc3nc2c1,active: 1.88 µM,–
COc1ccc(C2=C(Nc3ccc(C)cc3)c3ccccc3C2=O)cc1,active: 4.73 µM,–
O=C(c1ccccc1)N1CCC2(CC1)CCN(Cc1cccs1)c1ccccc1O2,"inconclusive: 23.7 µM [inhibitor, single point]",–
CC1CCN(S(=O)(=O)c2ccc(NC(=O)c3ccco3)cc2)CC1,–,inactive: 4.42%
Fc1ccc(CN2CC[C@H](c3nc4ccc(C(F)(F)F)cc4[nH]3)C2)cc1F,–,inactive: -9.52% [at 43.1 µM]
Cc1cc(Nc2ccc3ccccc3c2)n2ncnc2n1,active: 0.596 µM,–
COCCO[C@H]1C(=O)N(C2CCN(C(=O)COc3ccccc3)CC2)[C@H]1c1ccncc1,–,inactive: 9.04%
Oc1ccc(Cn2ccnc2)c2cccnc12,"inconclusive: 21.1 µM [inhibitor, single point]",–

SMILES,Potency,"activity change, negative = inhibition"
CCOC(=O)c1sc(NC(=O)CNCc2ccccn2)c(C(=O)OCC)c1C,"inconclusive: 10.6 µM [inhibitor, partial curve, poor fit]",–
COc1ccc(CNC[C@H]2O[C@H](Cc3cc(-c4ccccc4)on3)CC[C@@H]2O)cc1,active: 3.85 µM,–
O=C(CNC1CC1)Nc1cc(C(F)(F)F)ccc1Cl,"inconclusive: 15 µM [inhibitor, partial curve]",–
COc1ccc(NC(=O)c2cc3n(n2)CC(c2ccc(Cl)cc2)OC3)cc1Cl (configuration not stated),–,inactive: 20.3%
COc1ccc(-c2noc(CCCC(=O)N3CCCC3c3nc(C4CCOCC4)no3)n2)cc1OC (configuration not stated),–,inactive: -2.3%
CCn1cc(CN2CCC(N3C(=O)C4(CCCC4)C3c3ccccc3)CC2)cn1 (configuration not stated),"inconclusive: 16.8 µM [inhibitor, single point]",–
CCOc1ccccc1NC(C)C(=O)Nc1cc(C(F)(F)F)ccc1N1CCOCC1 (configuration not stated),active: 2.66 µM,–
Nc1ccc(NC(=O)c2cccc(C(=O)Nc3ccc(N)cc3Cl)c2)c(Cl)c1,–,inactive: 9%
O=C1CC(c2ccccc2)N(Cc2ccncc2)CCCN(S(=O)(=O)c2cccnc2)CCN1 (configuration not stated),"inconclusive: 15 µM [inhibitor, single point]",–
CN(C)CCNC(=O)c1ccc(-n2c(-c3ccccc3)cc3c2CCCCC3)cc1,"inconclusive: 8.41 µM [inhibitor, partial curve, poor fit]",–
CCCS(=O)(=O)N1C[C@@H](COC)[C@H](c2nc(C)no2)C1,–,inactive: 0%
Cc1ccc(CN(C)C(=O)c2cc(COc3ccc(F)cc3Cl)on2)o1,–,inactive: 20.9%
O=C(NC(c1ccccc1)c1cc(Cl)c2cccnc2c1O)c1cccnc1 (configuration not stated),active: 7.5 µM,–
CCOC(=O)C1=C(C)NC(=O)CC1c1cc(OC)c(OC)cc1Br (configuration not stated),active: 5.31 µM,–
COc1ccc(-c2cc(N3CCN(C(=O)Cc4cccc(OC)c4)CC3)n[nH]2)cc1,"inconclusive: 23.7 µM [inhibitor, single point]",–
CCCNC(=O)N1CC[C@@H]2[C@H]1C(=O)N(c1cccc(F)c1)C(=O)N2Cc1cccs1,–,inactive: -10.5% [at 43.1 µM]
CC(=O)Nc1ccc(/C(C)=N\NC(=O)c2ccc(-c3ccccc3)cc2)cc1,–,inactive: 18.3%
CCN1C(=O)C2CC3(CCN(C(=O)CCc4nc5ccccc5[nH]4)CC3)CN2C1=O (configuration not stated),–,inactive: 13.2%
N#CC/C(N)=N/Nc1nc2ccccc2nc1Cc1ccccc1,"inconclusive: 21.1 µM [inhibitor, single point]",–
c1ccc(-c2nc(N3CCCCCC3)c3ccccc3n2)nc1,active: 1.68 µM,–
CC(Oc1ccc(Br)cc1)c1nc2c3ccccc3nc(=S)n2[nH]1 (configuration not stated),–,inactive: 12%
Cc1ccccc1CSc1cn(CCNC(=O)c2cccs2)c2ccccc12,"inconclusive: 21.1 µM [inhibitor, single point]",–
Nc1nonc1-n1nnc(C(=O)N/N=C/c2ccc(Br)cc2)c1-c1ccc2c(c1)OCO2,active: 0.422 µM,–
COc1ccccc1NC(=O)N1CC(=O)Nc2sc3c(c2C1c1ccccc1)CCCC3 (configuration not stated),active: 15 µM,–

SMILES,Potency,"activity change, negative = inhibition"
COc1ccc(OC)c(CN2CC(Oc3ccccc3C(=O)NCc3ccccc3)C2)c1,"inconclusive: 13.3 µM [inhibitor, partial curve]",–
CCCC(C)N1CC2(CCN(C(=O)Cn3nc(C)cc3C)CC2)OC1=O (configuration not stated),–,inactive: 20.9%
O=C(c1ccccc1F)N1CCCC2(C1)C(=NC1CCCC1)NC(=O)N2c1cc(F)cc(F)c1 (configuration not stated),–,inactive: 9.15%
N#Cc1ccc(CN2C[C@@H]3C(=O)N(CCN4CCc5ccccc5C4)C(=O)[C@@H]3C2)cc1,–,inactive: -14.5%
COc1ccccc1NC(=O)CN1CCN(C(=O)c2ccco2)CC1,"inconclusive: 7.5 µM [inhibitor, partial curve, poor fit]",–
O=C(CCn1c(=O)c2cccn2c2cccnc21)NCc1cccc(Br)c1,–,inactive: -0.311%
Cc1ccc(Cl)cc1NC(=O)CCn1cnc2ccccc2c1=O,–,inactive: 35.2%
Cc1ccc(Nc2cc(C)nc(NCc3ccccc3)n2)cc1,"inconclusive: 15 µM [inhibitor, partial curve, poor fit]",–
O=C(Oc1cccccc1=O)c1ccccc1,"inconclusive: 6.68 µM [inhibitor, partial curve, poor fit]",–
Cc1ccc(C(=O)N2CCC3(CC2)N(c2ccccc2)C(=O)CS3(=O)=O)c(C)c1,–,inactive: 18.7%
CN(C)S(=O)(=O)N1CCC(N2C(=O)C(OCC3CC3)C23CCCCC3)CC1 (configuration not stated),–,inactive: -24%
CCc1ccc(NC(=O)C2CCc3nc(N4CCN(C(=O)C(C)C)CC4)sc3C2)cc1 (configuration not stated),"inconclusive: 18.8 µM [inhibitor, single point]",–
CCn1cc(CN2CCCC23CCN(c2ccc(C(F)(F)F)cn2)CC3)cc1C#N,"inconclusive: 8.41 µM [inhibitor, partial curve, poor fit]",–
Cc1ccc(C)c(CN2C(=O)c3ccccc3S(=O)(=O)c3ccc(C(=O)NCCc4ccc(Cl)cc4)cc32)c1,active: 7.5 µM,–
Cc1ccc(C2Cn3nnc(C(=O)N4CCC(C(=O)Nc5ccc(F)c(F)c5)CC4)c3CO2)cc1 (configuration not stated),"inconclusive: 18.8 µM [inhibitor, single point]",–
CCCCOC(=O)N1CCC(N2CCCC(C(=O)N3CCOCC3)C2)CC1 (configuration not stated),–,inactive: 35%
CC(C)c1noc(-c2cccn3c(CNC(=O)c4cc5ccccc5[nH]4)nnc23)n1,"inconclusive: 16.8 µM [inhibitor, single point]",–
CCOC(=O)c1cc(C)n(Cc2cccc(OC)c2OC)c1C,"inconclusive: 21.1 µM [inhibitor, single point]",–
CCOc1ccc(C(=O)Nc2cccc(NC(=O)c3ccc(C(C)(C)C)cc3)c2)cc1Br,–,inactive: 1.12%
c1ccc(CC2CCN(C(c3cccs3)c3nnnn3C3CCCC3)CC2)cc1 (configuration not stated),"inconclusive: 15 µM [inhibitor, single point]",–
CC(C)n1cc(CN2CCCC23CCN(c2ccc(C(F)(F)F)cn2)CC3)cn1,"inconclusive: 9.44 µM [inhibitor, partial curve]",–
Cc1ccc2nc(Cl)c3cc(C(=O)NCCCN4CCC(C)CC4)sc3c2c1,"inconclusive: 6.68 µM [inhibitor, partial curve]",–
Cc1c(O)c(CN2CCCC2)cc2c1oc(=O)c1ccccc12,active: 2.66 µM,–
CC(=O)c1cccc(N(C(=O)Cn2nnc3ccccc32)C(C(=O)NCc2ccccc2)c2ccc(F)cc2)c1 (configuration not stated),–,inactive: 25.6%
